# Test results reported in the supplement of paper PMC8728848.
# Some of the results follow.
# B1: Langerin K313I (Homo sapiens), Q9UJ71 (protein)
# chain: STLNAQIPELKSDLEKASALNTKIRALQGSLENMSKLLKRQNDILQVVSQGWKYFKGNFYYFSLIPKTWYSAEQFCVSRNSHLTSVTSESEQEFLYKTAGGLIYWIGLTKAGMEGDWSWVDDTPFNKVQSARFWIPGEPNNAGNNEHCGNIKAPSLQAWNDAPCDITFLFICKRPYVPSEP
# Legend:
# Assay in all cases: glycan array binding signal (z-score within array); higher = stronger binding
# Settings in all cases: glycan notation: IUPAC condensed, linker removed
# [1] = biological target: Fuc(a1-2)[GalNAc(a1-3)]Gal(b1-3)GlcNAc(b1-6)GalNAc
# Outline: (§1)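 Glycan array binding is given as a within-array Z-score, which can be read as non-binding when negative. The arrays, 3228 of them, came from the Consortium for Functional Glycomics database and were retained only where the protein sequence was available. Z-scores were averaged across arrays of the same protein sequence at different concentrations or buffers and across linkers.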
# [2] = biological target: Fuc(a1-2)[GalNAc(a1-3)]Gal(b1-4)Glc
# Outline: as §1
# [3] = biological target: Fuc(a1-2)[GalNAc(a1-3)]Gal(b1-4)GlcNAc
# Outline: as §1
# [4] = biological target: Fuc(a1-2)[GalNAc(a1-3)]Gal(b1-4)GlcNAc(b1-2)Man
# Outline: as §1
# [5] = biological target: Fuc(a1-2)[GalNAc(a1-3)]Gal(b1-4)GlcNAc(b1-2)Man(a1-3)[Fuc(a1-2)[GalNAc(a1-3)]Gal(b1-4)GlcNAc(b1-2)Man(a1-6)]Man(b1-4)GlcNAc(b1-4)GlcNAc
# Outline: as §1
# [6] = biological target: Fuc(a1-2)[GalNAc(a1-3)]Gal(b1-4)GlcNAc(b1-2)Man(a1-3)[Fuc(a1-2)[GalNAc(a1-3)]Gal(b1-4)GlcNAc(b1-2)Man(a1-6)]Man(b1-4)GlcNAc(b1-4)[Fuc(a1-6)]GlcNAc
# Outline: as §1
# [7] = biological target: Fuc(a1-2)[GalNAc(a1-3)]Gal(b1-4)GlcNAc(b1-3)Gal(b1-4)GlcNAc
# Outline: as §1
# [8] = biological target: Fuc(a1-2)[GalNAc(a1-3)]Gal(b1-4)GlcNAc(b1-3)Gal(b1-4)GlcNAc(b1-3)Gal(b1-4)GlcNAc
# Outline: as §1
# [9] = biological target: Fuc(a1-2)[GalNAc(a1-3)]Gal(b1-4)GlcNAc(b1-3)GalNAc
# Outline: as §1
# [10] = biological target: Fuc(a1-2)[GalNAc(a1-3)]Gal(b1-4)GlcNAc(b1-3)[Fuc(a1-2)[GalNAc(a1-3)]Gal(b1-4)GlcNAc(b1-6)]GalNAc
# Outline: as §1
# [11] = biological target: Fuc(a1-2)[GalNAc(a1-3)]Gal(b1-4)GlcNAc(b1-6)GalNAc
# Outline: as §1
# [12] = biological target: Fuc(a1-2)[GalNAc(a1-3)]Gal(b1-4)[Fuc(a1-3)]GlcNAc
# Outline: as §1
# [13] = biological target: Fuc(a1-2)[GalNAc(a1-3)]Gal(b1-4)[Fuc(a1-3)]GlcNAc(b1-3)GalNAc
# Outline: as §1
# [14] = biological target: Fuc(a1-2)[GalNAc(a1-4)]Gal(b1-4)GlcNAc
# Outline: as §1
# [15] = biological target: Fuc(a1-2)[GalNAc(b1-3)]Gal
# Outline: as §1
# [16] = biological target: Fuc(a1-3)GlcNAc
# Outline: as §1
# [17] = biological target: Fuc(a1-3)[Gal(b1-4)]Glc6S
# Outline: as §1
# [18] = biological target: Fuc(a1-3)[Gal(b1-4)]GlcNAc
# Outline: as §1
# [19] = biological target: Fuc(a1-3)[Gal(b1-4)]GlcNAc(b1-2)Man
# Outline: as §1
# [20] = biological target: Fuc(a1-3)[Gal(b1-4)]GlcNAc(b1-2)Man(a1-3)[Fuc(a1-3)[Gal(b1-4)]GlcNAc(b1-2)Man(a1-6)]Man(b1-4)GlcNAc(b1-4)GlcNAc
# Outline: as §1
# [21] = biological target: Fuc(a1-3)[Gal(b1-4)]GlcNAc(b1-2)Man(a1-3)[Fuc(a1-3)[Gal(b1-4)]GlcNAc(b1-2)Man(a1-6)]Man(b1-4)GlcNAc(b1-4)[Fuc(a1-6)]GlcNAc
# Outline: as §1
# [22] = biological target: Fuc(a1-3)[Gal(b1-4)]GlcNAc(b1-3)Gal(b1-3)[Fuc(a1-4)]GlcNAc
# Outline: as §1
# [23] = biological target: Fuc(a1-3)[Gal(b1-4)]GlcNAc(b1-3)Gal(b1-4)[Fuc(a1-3)]GlcNAc
# Outline: as §1
# [24] = biological target: Fuc(a1-3)[Gal(b1-4)]GlcNAc(b1-3)Gal(b1-4)[Fuc(a1-3)]GlcNAc(b1-3)Gal(b1-4)[Fuc(a1-3)]GlcNAc
# Outline: as §1
# [25] = biological target: Fuc(a1-3)[Gal(b1-4)]GlcNAc(b1-3)GalNAc
# Outline: as §1
# [26] = biological target: Fuc(a1-3)[Gal(b1-4)]GlcNAc(b1-6)GalNAc
# Outline: as §1
# [27] = biological target: Fuc(a1-3)[Gal(b1-4)]GlcNAc(b1-6)[Gal(b1-3)GlcNAc(b1-3)]Gal(b1-4)Glc
# Outline: as §1
# [28] = biological target: Fuc(a1-3)[Gal(b1-4)]GlcNAc6S
# Outline: as §1
# [29] = biological target: Fuc(a1-3)[Gal3S(b1-4)]Glc
# Outline: as §1
# [30] = biological target: Fuc(a1-3)[Gal3S(b1-4)]GlcNAc
# Outline: as §1
# [31] = biological target: Fuc(a1-3)[Gal3S(b1-4)]GlcNAc6S
# Outline: as §1
# [32] = biological target: Fuc(a1-3)[GalNAc(b1-4)]GlcNAc
# Outline: as §1
# [33] = biological target: Fuc(a1-3)[GalNAc(b1-4)]GlcNAc6S
# Outline: as §1
# [34] = biological target: Fuc(a1-4)GlcNAc
# Outline: as §1
# [35] = biological target: Fuc(b1-3)GlcNAc
# Outline: as §1
# [36] = biological target: Gal(a1-2)Gal
# Outline: as §1
# [37] = biological target: Gal(a1-3)Gal
# Outline: as §1
binder,measurement,setting,value
B1,glycan array binding signal (z-score),[1],-0.207
same,glycan array binding signal (z-score),[2],-0.326
same,glycan array binding signal (z-score),[3],-0.393
same,glycan array binding signal (z-score),[4],-0.222
same,glycan array binding signal (z-score),[5],0.057
same,glycan array binding signal (z-score),[6],0.559
same,glycan array binding signal (z-score),[7],-0.287
same,glycan array binding signal (z-score),[8],0.16
same,glycan array binding signal (z-score),[9],-0.021
same,glycan array binding signal (z-score),[10],-0.146
same,glycan array binding signal (z-score),[11],-0.352
same,glycan array binding signal (z-score),[12],0.325
same,glycan array binding signal (z-score),[13],0.321
same,glycan array binding signal (z-score),[14],-0.352
same,glycan array binding signal (z-score),[15],-0.358
same,glycan array binding signal (z-score),[16],-0.279
same,glycan array binding signal (z-score),[17],0.4
same,glycan array binding signal (z-score),[18],-0.29
same,glycan array binding signal (z-score),[19],-0.001
same,glycan array binding signal (z-score),[20],-0.128
same,glycan array binding signal (z-score),[21],0.327
same,glycan array binding signal (z-score),[22],-0.256
same,glycan array binding signal (z-score),[23],0.123
same,glycan array binding signal (z-score),[24],-0.366
same,glycan array binding signal (z-score),[25],0.17
same,glycan array binding signal (z-score),[26],0.314
same,glycan array binding signal (z-score),[27],-0.328
same,glycan array binding signal (z-score),[28],0.132
same,glycan array binding signal (z-score),[29],0.101
same,glycan array binding signal (z-score),[30],-0.187
same,glycan array binding signal (z-score),[31],-0.028
same,glycan array binding signal (z-score),[32],-0.257
same,glycan array binding signal (z-score),[33],-0.256
same,glycan array binding signal (z-score),[34],-0.37
same,glycan array binding signal (z-score),[35],-0.307
same,glycan array binding signal (z-score),[36],-0.155
same,glycan array binding signal (z-score),[37],-0.236
